Results reported in patent publication US9968649B2, “Vasopressin formulations for use in treatment of hypotension” (Par Pharmaceutical, Inc., priority 2015, dated 2018).
“And” between values parts separate entries of the source, which are not always exact repeats. Identical values can stand only once. Further values from the same series stand in other lists.

Experiment: Effect of temperature on vasopressin formulations: HPLC vasopressin assay and impurities on storage (Example 8)
Type: physicochemical
Description: To analyze degradation products of vasopressin that can be present in an illustrative formulation of vasopressin, gradient HPLC was performed to separate vasopressin from related peptides and formulation components. TABLE 2 below depicts the results of the experiment detailing the chemical formula, relative retention time (RRT), molar mass, and structure of vasopressin and detected impurities.
Vasopressin was detected in the eluent using UV absorbance. The concentration of vasopressin in the sample was determined by the external standard method, where the peak area of vasopressin in sample injections was compared to the peak area of vasopressin reference standards in a solution of known concentration. The concentrations of related peptide impurities in the sample were also determined using the external standard method, using the vasopressin reference standard peak area and a unit relative response factor. An impurities marker solution was used to determine the relative retention times of identified related peptides at the time of analysis.
To test the effect of temperature on the stability of vasopressin formulation, solutions containing 20 units/mL vasopressin and chlorobutanol, adjusted to pH 3.5 with acetic acid, were prepared. One mL of each vasopressin formulations was then filled into 3 cc vials. Each Vasopressin Formulation was stored either inverted or upright for at least three months, up to 24 months, at: (i) 5° C.; (ii) 25° C. and 60% relative humidity; or (iii) 40° C. and 75% humidity, and the amount of vasopressin (U/mL) and % total impurities were measured periodically. TABLES 7-12 below display the results of the experiments at 5° C. The results of the experiments at 25° C. are included in TABLES 13-18. All of the experiments were performed in triplicate. The results of the experiments at 40° C. are included in TABLES 19-24. For each temperature tested, three lots of the vasopressin formulation were stored for 24 months (5° C. and 25° C.) and 3 months (40° C.), and measurements were taken at regular intervals during the testing periods. “NMT” as used in the tables denotes “not more than.”
Experiments were also conducted on the same samples above over the course of the experiments to measure the amount of individual impurities in the samples, pH of the samples, chlorobutanol content, particulate matter, antimicrobial effectiveness, and bacterial endotoxin levels (TABLES 25-42). (NR=no reading; ND=not determined; UI=unidentified impurity).

NC(=O)CC[C@@H]1NC(=O)[C@H](Cc2ccccc2)NC(=O)[C@H](Cc2ccc(O)cc2)NC(=O)[C@@H](N)CSSC[C@@H](C(=O)N2CCC[C@H]2C(=O)N[C@@H](CCCN=C(N)N)C(=O)NCC(N)=O)NC(=O)[C@H](CC(N)=O)NC1=O [Vasopressin, Cyclo (1-6) L-Cysteinyl-L-Tyrosyl-L-Phenylalanyl-L-Glutaminyl-L-Asparaginyl-L-Cysteinyl-L-Prolyl-L-Arginyl-L-Glycinamide]
Total Impurities (Upright, 40° C. (75% humidity), 1 month): 3.8%
Total Impurities (Upright, 40° C. (75% humidity), 2 months): 7.1% and 6.3%
Total Impurities (Upright, 40° C. (75% humidity), 3 months): 10.2% and 10.5%
Total Impurities (Upright, 40° C. (75% humidity), Initial): 1.5%
Total Impurities (inverted, 5° C., 1 month): 2.0% and 2.2% and 1.9%
Total Impurities (inverted, 5° C., 2 months): 2.1% and 2.3% and 2.0%
Total Impurities (inverted, 5° C., 3 months): 2.3% and 2.4% and 2.2%
Total Impurities (inverted, 5° C., 6 months): 2.2% and 2.1% and 2.0%
Total Impurities (inverted, 5° C., 9 months): 2.3% and 2.1%
Total Impurities (inverted, 5° C., 12 months): 2.6% and 2.7% and 2.4%
Total Impurities (inverted, 5° C., 18 months): 2.9% and 2.6%
Total Impurities (inverted, 5° C., 24 months): 2.9% and 2.8%
Total Impurities (inverted, 5° C., Initial): 2.3% and 2.7% and 2.2%
Total Impurities (inverted, 40° C. (75% humidity), 2 months): 6.3%
Total Impurities (inverted, 40° C. (75% humidity), Initial): 1.5%
